# Source: the supplement of paper PMC4723716
# Over roughly 3,600 compounds, “viability index relative to DMSO control” has its median near 0.81; the lowest 2% begin near 0.13. This is one part of the list.
# System: Plasmodium falciparum NF54 stage V gametocytes
# Test: viability index relative to DMSO control (fraction); higher = less gametocyte killing
# Details: 1.25 µM, incubation time: 72 h
# 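Further: 384-well serum-free SaLSSA: MitoTracker Red CMXRos staining with saponin lysis, high-content imaging, treated-well particle count divided by plate-mean count of DMSO wells.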
row,Compound,viability index
1,COc1ccc(C2CC(=O)C3=C(C2)NC(C)=C(C(=O)OC2CCCC2)C3c2ccc(Cl)cc2)cc1 (stereo not drawn),0.502
2,C=CCNC(=O)c1cc2c(=O)n3ccccc3nc2n(CCc2ccccc2)c1=N,0.686
3,Cc1ccc(CN2CCN(Cc3ccccc3)CC2)o1,0.788
4,COc1ccc(N2C(=O)c3cccnc3C2=O)cc1,0.743
5,Cn1c(SCc2cccc([N+](=O)[O-])c2)nc2c(c1=O)SCC2,0.818
6,CCOC(=O)C1(CC2CCCCO2)CCN(Cc2cccc(C)n2)CC1 (stereo not drawn),0.442
7,CCC(C(=O)NCc1ccc(OC)c(OC)c1)n1nc(C)c2c(C)n(-c3ccc(C)cc3)nc2c1=O (stereo not drawn),0.639
8,CCCC[n+]1c(C=C2C=Cc3ccccc3N2CC)sc2ccccc21,0.257
9,COc1ccc(/C=C(/C#N)C(=O)Nc2cccc3ccccc23)cc1,0.934
10,Brc1ccc(C=NNc2nc3ccccc3[nH]2)cc1,1.12
11,COCCNC(=O)c1ccc(OC2CCN(CC(c3ccccc3)c3ccccc3)CC2)c(OC)c1,0.512
12,CC1CCN(C2=C(NC3CCCC3)C(=O)c3ccccc3C2=O)CC1,0.394
13,CCOc1ccc(N2C(N)=NC(N)=NC2(C)C)cc1,0.992
14,CCOC(=O)c1c(NC(=O)CSc2nnc(CNC(=O)c3ccc(C)c(C)c3)n2C2CCCCC2)sc2c1CCC2,0.784
15,CCOc1cccc(Nc2c3c(nc4ncnn24)CCC3)c1,0.844
16,CCOC(=O)c1cnc2c(OC)cccc2c1Nc1ccc(C(C)=O)cc1,1.27
17,C#CCNC(=O)c1ccc(OC2CCN(CC(c3ccccc3)c3ccccc3)CC2)c(OC)c1,0.536
18,O=C(O)c1cc([N+](=O)[O-])ccc1Oc1cncc(Cl)c1,1.21
19,CCOc1ccc(C=C2SC(=Nc3ccccc3)NC2=O)cc1OC,0.645
20,COC(=O)c1cn([C@H]2C[C@@H](C(=O)NCc3ccc(OC)cc3)N(Cc3ccsc3)C2)nn1,1

row,Compound,viability index
1,COc1ccc(Nc2ccccc2NC(=O)c2cccc(N(C)C)c2)cc1,0.791
2,Cc1cc(Nc2ccc(Cl)c(Cl)c2)n2ncnc2n1,0.71
3,COc1ccc(NC(=O)c2cnn(-c3ccccc3)c2NC(=O)c2ccco2)cc1,0.846
4,CCOC(=O)c1ccc(NC(=O)c2cc3ccccn3n2)cc1,0.917
5,Cn1nc(C(F)(F)F)c(-c2ccc(F)cc2)c1NC(=O)Nc1ccccc1,0.647
6,Cc1cc(C)c(S(=O)(=O)N(C)CCCNc2ccnc3cc(Cl)ccc23)c(C)c1,0.685
7,CCCN(CCC)CCCNc1ccc(C(=O)Nc2ccc(C)c(F)c2)cc1[N+](=O)[O-],0.988
8,CCCCCC1CCCc2c1[nH]c1cc(Cl)ccc1c2=O (stereo not drawn),0.54
9,O=C(Nc1ccc2c3c(cccc13)CC2)c1cccc2ccccc12,0.743
10,CN(C)CCNc1cc(-c2ccccc2)nc2ccccc12,0.909
11,Cc1ccc(S(=O)(=O)Nn2c(SCC(=O)NCCc3ccc(S(N)(=O)=O)cc3)nc3ccccc3c2=O)cc1,0.972
12,CC1=C(C(=O)OCC(C)C)C(c2ccc(OCc3ccccc3)cc2)C2=C(CC(c3ccccc3)CC2=O)N1 (stereo not drawn),0.811
13,CCOC(=O)c1cnc2ccccc2c1Nc1ccc(OC)c(OC)c1,0.93
14,Cc1cc(C)n(N=Cc2cccc(Cl)c2)c(=O)c1C#N,0.951
15,O=C1CSc2ccccc2N1,0.863
16,COc1ccc(CCN2C(=O)N(CCN(C)C)C(=O)C23CCN(Cc2ccc(O)cc2)CC3)cc1,1.12
17,O=C1c2ccccc2C2=Nc3ccccc3SC(c3ccccc3F)C12 (stereo not drawn),0.753
18,CC1CCCC(NC(=O)C2N(CCN3CCCCC3C)C(=O)C3C(C(=O)Nc4cccc(Cl)c4)C4C=CC32O4)C1C (stereo not drawn),1.02
19,CN1CCN(c2ccc(Nc3ccnc4cc(Cl)ccc34)cc2Cl)CC1,0.719
20,CCc1cccc(NS(=O)(=O)c2ccc3[nH]c(=O)c(=O)[nH]c3c2)c1,0.763

row,Compound,viability index
1,CCOC(=O)c1cnc2ccc(OCC)cc2c1NCCCN(CC)CC,0.827
2,COc1ccc(-c2c[n+](CC(=O)c3ccc([N+](=O)[O-])cc3)c3n2CCC3)cc1,0.933
3,COc1ccc(C(C)=NNc2nnc(C)c(O)n2)cc1,0.842
4,COc1ccc(OC)c(CN2CCC3(CC2)CC3C(=O)NCCc2ccccc2OC)c1 (stereo not drawn),1.06
5,COc1ccc(NC(=O)CCCCCn2c(SCc3cc(=O)oc4cc(O)ccc34)nc3ccsc3c2=O)cc1,0.925
6,OC(Cn1cnc(-c2ccccc2)c1-c1ccccc1)Cn1c2ccc(Br)cc2c2cc(Br)ccc21 (stereo not drawn),0.494
7,CC(=O)NC(CO)C(O)c1ccc([N+](=O)[O-])cc1 (stereo not drawn),0.992
8,CCc1ccc(CSc2nc3cc(OC)c(OC)cc3c(=N)n2CCc2ccccc2)cc1,0.926
9,O=C(Oc1ccc(N2C(=O)c3ccc([N+](=O)[O-])cc3C2=O)cc1)c1ccco1,0.888
10,CCNC(=S)NC1CC2CCCC(C1)N2CCc1ccccc1 (stereo not drawn),0.866
11,Cc1cccc(Nc2nc(NCc3ccco3)c3ccccc3n2)c1,0.561
12,O=C1c2ccc(-c3nc(-c4ccccc4)[nH]c3-c3ccccc3)cc2-c2cc(-c3[nH]c(-c4ccccc4)nc3-c3ccccc3)ccc21,0.742
13,CC(=O)Nc1ccc(C2NC(=O)NC3=Nc4ccccc4SC(c4ccccc4)=C32)cc1 (stereo not drawn),0.853
14,Cc1cccc(N=C2NC(=O)C(=Cc3ccc(N(C)C)cc3)S2)c1,0.981
15,COc1ccc(C(NC(=O)COc2ccccc2)c2cc(Cl)c3cccnc3c2O)cc1 (stereo not drawn),0.873
16,O=C(Nc1nc(-c2ccccc2)cs1)c1ccccc1O,0.983
17,O=C(Nc1cc(Cl)cc(Cl)c1)Nc1cccc(C(F)(F)F)c1,1.06
18,Cc1ccc(C2=NC(C(F)(F)F)(C(F)(F)F)N=C3C=CC(Cl)=CN32)cc1,1.21
